Experimental data published in PubChem BioAssay AID686978 (National Center for Advancing Translational Sciences (NCATS), 2013).
Values joined by “and” are separate entries in the source; they are usually repeats but may differ in a detail not shown here. Equal entries are not always repeated. In all, about 420,000 compounds went through this assay and about 64,000 (15%) were called active. The inconclusive results got no clear call from the source; some entries with a clear call stand among them for comparison. The call rests on the fitted dose curve; in most records, active means well fitted inhibition curve with a large enough effect; inconclusive means small, poorly fitted or top-dose-only effect; inactive means flat fitted curve, though single readings scatter. Potencies of inconclusive entries are left out as doubtful fits.

Experiment: qHTS for Inhibitors of human tyrosyl-DNA phosphodiesterase 1 (TDP1): qHTS in cells in absence of CPT; further: nearly all actives have a fitted effect of over 55% in size
Conditions: DT40 Tdp1-/- hTDP1 cells, no CPT, ATP luminescence, 48 h; activity change, negative = growth inhibition: at 46.2 µM (top of the series) unless noted
In short: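 Growth of hTDP1-complemented DT40 Tdp1-knockout cells is measured by ATP luminescence after at least 48 hr compound exposure at 37 °C, with DMSO substituting for the 20 nM CPT used in the parallel screen.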
On the % scale 0 is the no-effect control and ±100 the full control effect; potency means the concentration at half of the fitted maximal effect; tags describe the fitted curve by direction and shape.

Compound	Potency	activity change, negative = growth inhibition
O=C(CCc1nc(-c2ccccc2)no1)NCc1ccco1	inconclusive [inhibitor, single point]	–
CCOc1cc(C(=O)N2CCC(CC3CC(c4cccc(Br)c4)=NO3)(C(=O)NCC3CCCCC3)CC2)cc(OCC)c1OCC (stereo unspecified)	active: 20.6 µM	–
N#Cc1c(C(F)(F)F)cc(-c2ccccc2)nc1SCC(=O)Nc1sc2c(c1C#N)CCC2	active: 10.3 µM	–
CC(OC(=O)CCc1cc(C(C)(C)C)c(O)c(C(C)(C)C)c1)C(=O)NC1CC1 (stereo unspecified)	inconclusive [inhibitor, single point]	–
COc1ccc(C(=O)/C=C2/C(=O)Nc3ccccc32)cc1	active: 4.11 µM	–
CCN(CC)CCCC(C)Nc1nccc2cccc(Cl)c12 (stereo unspecified)	inconclusive [inhibitor, partial curve, poor fit]	–
CC(Sc1n[nH]c(N)n1)c1nc2scc(-c3cccs3)c2c(=O)[nH]1 (stereo unspecified)	inconclusive [inhibitor, partial curve]	–
O=C(CCc1ccccc1)OCCN1CCOCC1	–	inactive: -2.65%
Cc1cccc(N2CCN(C(=O)c3c(C)oc4nc(C)nc(N5CCCC5)c34)CC2C)c1 (stereo unspecified)	inconclusive [inhibitor, single point]	–
CC(=O)Nc1ccc(NC(=O)C(Cc2ccccc2)N2Cc3ccccc3C2=O)cc1 (stereo unspecified)	–	inactive: -9.13%
Cc1ccc(C)c(N2CCN(CCCc3ccccc3)CC2)c1	inconclusive [inhibitor, single point]	–
C/C=N\NC(=O)COc1cc(C)ccc1C	–	inactive: 10.1%
COC(=O)c1c(-c2c(Cl)cccc2Cl)noc1NC(=O)NN1CCCCC1	active: 16.4 µM	–
O=C(Nc1ccc2oc(-c3ccncc3)nc2c1)c1ccccc1F	–	inactive: -11.2%
COc1cc2c3c(c1OC)C(=O)CC3CCCC2 (stereo unspecified)	–	inactive: -16%
Cc1ccc(Cl)cc1N1CCN(C(=O)c2cn(C)c3ccc(S(=O)(=O)N(C)C4CCCCC4)cc3c2=O)CC1	–	inactive: -27.4%
CN1C(=O)/C(=C/c2ccccc2OCc2ccccc2)NC1=S	inconclusive [inhibitor, single point]	–
CC(NC(=O)CCc1nnc(-c2ccc(-c3ccccc3)cc2)o1)c1nc2ccccc2[nH]1 (stereo unspecified)	active: 16.4 µM	–
Cn1nnnc1SCc1ccc([N+](=O)[O-])cc1	–	inactive: 7.64%
CCCN(CCC)Cc1c(C(=O)N/N=C/C(C)=C\c2ccccc2)nnn1-c1nonc1N	active: 25.9 µM	–
NS(=O)(=O)c1ccc(CCNc2nn3c(-c4cccc(OC(F)(F)F)c4)cnc3s2)cc1	active: 13 µM	–
CC(C)C1CCN(C(=O)C2CCC(=O)N(C3CCCCCC3)C2)CC1 (stereo unspecified)	inconclusive [inhibitor, single point]	–
COc1cccc(-n2c(SCC(=O)N3CCCCC3)nc3c([nH]c4ccccc43)c2=O)c1	active: 18.4 µM and active: 20.6 µM	–

Compound	Potency	activity change, negative = growth inhibition
O=C(Nc1ccc(OC(F)(F)F)cc1)c1cnc2n(c1=O)CCS2	inconclusive [inhibitor, partial curve]	–
COc1ccc(-c2ccc3c(c2)S(=O)(=O)c2cccc(C(=O)NC[C@@H]4CCCO4)c2C3=O)cc1OC	inconclusive [inhibitor, partial curve]	–
CC1CCC(N2CC(=O)N(C3CCCC3)C(c3ccc(Cl)cc3)C2=O)CC1 (stereo unspecified)	active: 16.4 µM	–
CCNc1ncc2nc(-c3ccc(Cl)cc3)c(=O)n(C[C@H]3CCCO3)c2n1	–	inactive: -8.49%
CC(C)(C)n1nnnc1C(c1ccccc1F)N1CCN(C2CCCC2)CC1 (stereo unspecified)	–	inactive: -20.1%
Cc1ccc(C)c(CN2C(=O)c3ccccc3Sc3ccc(C(=O)NCc4cccs4)cc32)c1	inconclusive [inhibitor, single point]	–
O=S(=O)(/N=C(/Nc1cccc2ccccc12)c1ccccc1)c1ccc(F)cc1	inconclusive [inhibitor, single point]	–
CCc1nc2ccc(C(=O)Nc3ccc(OC)c(OC)c3)cn2c1N(C)CCC(C)C	inconclusive [inhibitor, single point]	–
COc1cc(-c2nc(-c3ccccc3)c(-c3cccs3)[nH]2)cc(OC)c1O	inconclusive [inhibitor, single point]	–
O=C(NNc1c2ccccc2nc2ccccc12)C(O)c1ccccc1 (stereo unspecified)	inconclusive [inhibitor, single point]	–
CCOC(=O)C(C(C)C)C(N)Cc1ccc(F)cc1 (stereo unspecified)	inconclusive [inhibitor, partial curve, poor fit]	–
Cc1ccc(C(=O)NCC(=O)NCc2cc(=O)n(C)c(=O)n2C)cc1	inconclusive [inhibitor, single point]	–
Cc1ccc(C(=O)N2CCc3cc4c(cc3C2C)OCCCO4)cc1 (stereo unspecified)	inconclusive [inhibitor, full curve]	–
COc1ccc(F)cc1S(=O)(=O)N1CCN(Cc2ccc3c(c2)OCO3)CC1	–	inactive: -22.1%
CCc1nnc(NC(=O)c2ccc(F)c(S(=O)(=O)N3CCCCC3)c2)s1	–	inactive: 1.43%
CCOC(=O)C1(Cc2ccccc2)CCCN(Cc2ccccn2)C1 (stereo unspecified)	inconclusive [inhibitor, single point]	–
Nc1nc(=O)n(C2CCC(CO)O2)cc1F (stereo unspecified)	inconclusive [inhibitor, single point]	–
COc1cc(/C=C2\N=C(C)OC2=O)cc(Cl)c1OC(C)=O	inconclusive [inhibitor, partial curve]	–
COc1ccc(NC(=O)c2c(N)c(C(=O)c3ccc(C)cc3)n3ccccc23)cc1OC	inconclusive [inhibitor, partial curve]	–
COc1ccccc1-c1csc(C(C)(O)c2ccccc2)n1 (stereo unspecified)	inconclusive [inhibitor, single point]	–
Cc1nn(Cc2ccc(F)cc2)c(Cl)c1/C=N/NC(=O)c1ccccc1	inconclusive [inhibitor, single point]	–
Cc1ccc(C)c(NC(=O)C2CCN(c3nn4c(=O)cc(C)nc4s3)CC2)c1	–	inactive: -0.403%
CC(C)C(=O)Nc1ccc(C(=O)CN2C(=O)NC3(CCOc4ccccc43)C2=O)cc1 (stereo unspecified)	inconclusive [inhibitor, single point]	–
